# From the RNAGym collection of RNA variant scans (doi:10.1093/nar/gkz1192)
# The source gives no read counts; variants with many changes may rest on few reads.
# B1: CPEB3 Ribozyme (parent)
# chain: UAACAGGGGGCCACAGCAGAAGCGUUCACGUCGCAGCCCCUGUCAGAUUCUGGUGAAUCUGCGAAUUCUGCUGUAUAUCUC
# Variants of: B1
# Experiment: self-cleavage, relative activity (ratio to wild type); higher = more cleavage; in vitro, sequencing
# Method in brief: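 Barcoded CPEB3 ribozyme mutants, produced by rounds of error-prone PCR, self-cleaved while being transcribed with T7 RNA polymerase for 5 hours at 37°C and during a subsequent 15 min DNase I step before EDTA was added. Sequencing of template-switched cDNA on Illumina gave cleaved and total reads, and DNA sequencing assigned barcodes to variants. Each variant's relative activity is its cleaved/total read fraction divided by the unmutated ribozyme's fraction, averaged across three batches. A variant needed a minimum of 5 reads.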
row,Variant,self-cleavage
1,UAACAGGGGACCACAGCAGAAGCGUUCACGUCGCAGCCCCUGUCGGAUUCUCGUGAAUCUGCGAAUUCUGCUGUACAUCUC,0.11
2,UAACAGGGGACCACAGCGGAAGCGUCCACGUCGCAGCCCCUGGCAGAUUCUGGUGAAUCUGCGAAUUCUGCUGUAUAUCUC,0.14
3,UAACAGGGGACCACAGCAGAAGCGUUCACGUCGCAGCCUCUGUCAGGUUCCGGUGAAUCUGCGAAUUCUGCUGUAUAUCUC,0.05
4,UAACAGGGGACCACAGCAGAAGCGUUCGCGUCGCAGCCCCCGUCAGAUUCUGGUGAAUCUGCGAAUUCUGCUGUAUAUCUC,0.2
5,UAACAGGGGACCACAGCAGAAGCGACCACGUCGCUGCCCCUGUCAGAUUCUGGUGAAUCUGCGAAUUCUGCUGUAUAUCUC,0.04
6,UAACAGGGGACCACGGCAGAAGCGUUCACGGCGCAGCCCCUGUCAGAUUCUGGUGAAUCUGCGAAUCCUGCUGUGUAUCUC,0.04
7,UAACAGGGGACCACAGCAGAAGCGUUCACGUCGCAGCCUCAGUCAGAUUCUGGUGAAUCUGCGAAUUCUGCUUUAUAUCUC,0.14
8,UAACAGGGGACCACAGCAGAAGCGUUCACGUCGCAGCCCCUGUCAGAUUCUGGUGAAUCUGCGGAUUCUGCUGUAUUUCUC,0.06
9,UAACAGGGGACCACAGCUGAGGCGUUCACGUCGCAGCCCCAGUCAGAUUCAGGUGAAUCUGCGAAUCCCGCUGUAUAUCUC,0.03
10,UAACAGGGGACCUCAGCAGAAGCGUUCACGUCGCUGCCCCUGCCAGAUUCUGGUGAAUCUGCUAAUUCUGCUGUAUAUCAC,0.04
11,UAACAGGGGACCACAGCUGAAGCGUUCACGUCGCAGCCCCUGUCAGAUUCUGGUGAAUCUGCGAAUUCUGCCGUAUAUCCC,0.05
12,UAACAGGGGACCACAGCAGGAGCGUUCACGUCGCAGCCCCUGCCAGAAUCUGGUGAAUCUGCGAAUUCUGCUGUAUUUCUC,0.24
13,UAACAGGGGACCACAGCAGAAGCGUUCACGUCGCGGCCCCUGUCAGAUUCUGGUGAAUCUGCGGAUUCUGCUGUAUAUCUC,0.72
14,UAACAGGGGACCUCAGCGGAAGCGUUCAUGUCGCAGCCCCUGUCAGAUUCUGGUGAAUCAGCGAAUUCUGCUGUAUAUCUC,0.1
15,UAACAGGGGACCACAGCGGAGGCGUUCACGUCGCAGCCCCUGUCAGAUUCUGGUGAAUCUGCGAAUUCCGCCGUAUAUCUC,0.11
16,UAACAGGGGACCACAGCAGAAGCGUUCCCGUCGCUGCCCCCGUCAGGCUCUGGUGAAUCUGCGAAUUCAGCUGUAUAUCUC,0.17
17,UAACAGGGGACCACUGCAGAAGCGCUCACGUCGCAGCCCCUGUCAGAUUCUGGAGAAUCUGCGAAUUCUGCUGUAUAUCUC,0.04
18,UAACAGGGGACCACGGCAGAAGCGUUCACGUCGCAGCCCCUGUCAGAUUCUGGUGGAUCUGCGAAUUCUGCUGUAUAUCUC,0.35
19,UAACAGGGGACCACAGCAGACGCGUUCACGUCGCAGUCCUUGUCUGAUUCUGGUGAAUCCGCGAAUUCUGCUGUAUAUCUC,0.02
20,UAACAGGGGACCACGGCAGAAGCGUUCACGUCGCAGCCCCUGUCAGAUUCUGGAGAAACUGCGAAUUCUGCUGUAUAUCUC,0.18
21,UAACAGGGGACCACUGCAGAAGCGUUCACGUCGCAGCCCCUGUCAGGUUCUGGUGAAUCUGCGAAUUCUGCUGUAUAUCUC,0.06
22,UAACAGGGGAUCACAGCAGAAGCGUUCACGUCGGAGCCCCUGUCAGAUUCUGGAGAGUCUGCGAAUUCUGCAGUAUAUCUC,0.04
23,UAACAGGGGACCACAGCGGAAGCGUUCACGUCGCAGCCCCUGUCAGAUUCCGGUGAAUCUGCGAAUUCUGCUGUAUAUCUC,0.34

row,Variant,self-cleavage
1,UAACAGGGGACCACAGCGGAAGCGUUCACGUCGCAGCCCCUGUCAGAUUCUGGUGAAUCUGCGAGUUCUGCUGUAUAUCAC,0.04
2,UAACAGGGGACCACAGCAGAGGCGUUCACGUCGCAGCCCCAGUCAGAUUCUGGUGAAUCUGCGAAUUCUGCUGUAUAUCUC,0.19
3,UAACAGGGGACCACAGCAGAAGCGUUCACGUCGCAGCCCCUGUCAGAUUCUGGUGAAUCUGAGAGUUCUGCUGUAUUACUC,0.03
4,UAACAGGGGACCACAGCAGUAGCGUUCACGUCGCAGCACCUGUCAGAUUCUGGUGAAUCUGCGAACUCUGCUGUAUAUCUC,0.14
5,UAACAGGGGACCACAGCUGAAGCGUUCACGUAGCAGCCCCUGUCAGAUUCUGGUGAAUCUGCGAAUUCUGCUGUAUAUCUC,0.14
6,UAACAGGGGACCACAGCAGAAGCGUUCGCGUCGCAGCCCCUGUCAGAUUUUGGUGAAUCUGCGUAUUCUGCUGUAUAUCCC,0.33
7,UAACAGGGGACCUCAGCAGAAGCGCUCACGUCACAGCCCCUGUCAGAUUCUGGCGAAUCUGCGAAUUCUGCUGUAUAUCUC,0.07
8,UAACAGGGGACCACAGCUGAAGCGUUCACGCCGCAGCCCCUGACGGAUUCUGGUGAAUCUGCGAAUUCAGCUGUAUAUCUC,0.03
9,UAACAGGGGACCACAGCAGUAGCGUUCACGUCGCAGCCCCCGUCUGAUUCUGGUGAAUCUGCGAUUUCUGCUGUGUAUCUC,0.04
10,UAACAGGGGACCACAGCGGAAGCGUCCACGUCGCAGCCCCGGUCGGAUUCUGGUGAAUCUGCGAAUUCUGCUGUAUAUCUC,0.18
11,UAACAGGGGACCACGGCAGAAGUGUUCACGUCGCAGCCCCUGUCAGGUUCUGGUGAAUCUGCGGAUCCUGCUGUAUAUUUC,0.02
12,UAACAGGGGACCUCAGCAGAAGCGUUCACGUCGCGGCCCCUGUCAGAUUCUGGUGAAUCUGCGAAUUCUGCUGUAUACCUC,0.51
13,UAACAGGGGACCACAGCAGAAACGUUCGCGUCGCAGCCCUUGUCAGAUUCUGAUGAAUCAGCGAAUUCUGCUGUAUAUCUC,0.04
14,UAACAGGGGACCACGGCAGUAGCGUUCACACCGCAGCCCUUGUCAGAUUCUGGUGAAUCUGCGAAUUCUGCUGUAUAUCUC,0.06
15,UAACAGGGGACCACUGCAGAAGCGUUCACGUCGCAGCCCCUGUCGGAUUCUGGUGAAUCUGCGAAUUCUGCUGUAUAUCUC,0.17
16,UAACAGGGGACCACAGCGGAAGCGUUCACGUCGCAGCCCCUGGCAGAUACUGGUGAAUCUGCGAAUUCUGCUGUAUAUCUC,0.04
17,UAACAGGGGACCACAGCAGAAGCGUUCACGUCGCAGCCCCUGUCAGAUUCUGGUGAAUCUGCGAGUUCUGCUGUAUACCUC,0.11
18,UAACAGGGGACCACAGCAGAAGCGUUCACGUCGCAGCCCCUGUCAGAUUCUGGUGGAUCUGCGAAUCCUGCUGUAUAUCUC,0.14
19,UAACAGGGGACCACAGCAGAAGCGUUCACGUCGCAGUCCCCGUCAGAUUCUUGUGAAUCUGCGAAUUCUGCUGUAUAUCUC,0.58
20,UAACAGGGGACCACAGCAGAGGCGUUCACGUCGCAGCCCCUGUCAGAUCCUGGUGAAUCUGCGAAUACCGCUGUAUACCUC,0
21,UAACAGGGGACCACAGGAGAAGCGUUCACGUCGCAGCCCUUGUCAGAUUCUGGUGAAUCUGCGAAUUCUGCUGUAUUUCUC,0.35
22,UAACAGGGGACCACAGCAGAAGUGUCCACGUCGCAGCCCCUGUCAGUUUCUGGUGAAUCUGCGAAUUCUGCCGUAUAUCUC,0.09
23,UAACAGGGGACCACCGCAGAAGCGUUCACGUCGCAGCCCCUGUCAGAUUCUGGUGAAUCUGCGAAUCCUGCUGUAUAUCUC,0.19

row,Variant,self-cleavage
1,UAACAGGGGACCACAGCAGGAGCGUUCACGUCGCAGCCCCUGUCAGAUUCUGGUGAAUCUGCGAAUUCUGCUGUAUACCUC,0.16
2,UAACAGGGGACCACAGCAGAAGCAUUCACGUCGCAGCCCCUGUCAGUUUCUGGUGGAUCUGCGAAUCCUGCUGUAUAUCAC,0.05
3,UAACAGGGGACAGCAGCAGAAGCGUACACGUCGCAGCCCCUGUCGGAUUCGGGUGAAUCUGCGAAUUCUGCUGUAUACCUC,0.04
4,UAACAGGGGACCACUGCAGAAGCGUUCACGUCGCAGCCCCUGUCAGAUACUGGUGAAUCCGCGAAUUCUGCUGUAUAUCCC,0.06
5,UAACAGGGGACCACAGCAGAAGCGCUCACGUCGCAGCCCCUGUCAGAUUCUGGUGGAUCUGCGAAUUCUGCUGUAUACCUC,0.06
6,UAACAGGGGACCACAGCAGAAGCGUUCACGUCGCAGCCCCUGUCAGAUUCUGGUGAGGCUGCGAAUUCUGCUGUAUAUCUC,0.17
7,UAACAGGGGACCAUAGCUGAAGCGUUCGCGUCGCAGCCCCCGUCAGAUUCUGGUGAAUCUGCGAAUUCUGCUGUAUAUCUC,0.05
8,UAACAGGGGACCAUAGCAGUAGCGUUCACGUCGCAGCCCCAGUCAGAUUCUGGUGAAUCUGCGAAUUCUGCUGUACAUCUC,0.28
9,UAACAGGGGACCACAGCUGAAGCGUUCGCGUCGCAGCCCCUGUCAGAUUCUGGUGAAUCUGCGAAUUCUGCCGUACAUCUC,0.21
10,UAACAGGGGACCACAGCAGAGGCGUUCACGUCGCAGCCCCUGUCAGAUUCUGGUGAAUCUGCGAAAUCUGCUGUAUAUCUC,0.28
11,UAACAGGGGACCACAGCUGAAGCGUUCACGCCGCAGCCCCUGUCAGAUCCUGGUGGAUCUGCGAAUUCUGCUGUAUAUCUC,0.22
12,UAACAGGGGACCACAGCAGAAGCGUUCACGUCGCAGCCCCUGUUAGGUCCUGGUGAAUCUGCGAGCUCUGCUGUAUAUCUC,0.04
13,UAACAGGGGACCACAGCAGAAGCGUUCACGUAGCAGCCCCUGGCAGAUUCUGGUGAAUCUGCGAAUUCUGCUGUAUAUCUC,0.22
14,UAACAGGGGACCACAGCAGAAGCGAUCACGUCGCAGCCCCUGUCAGAUUCGGGUGAACCUGCGAAUUCUGCUGUUUAUCAC,0.05
15,UAACAGGGGACCACGGCAGGAGCGUUCACGUCCCAGCCCCUGUCAGAUUCUGGUGAAACUGCGAAUCCUGCUGUACAUCUC,0.02
16,UAACAGGGGACCACAGCAGAAGCGUUCACGUCACAGCCCCUGUCGGAUUCUGGUGAAUCUGCGAACUCUGCUGUAUAUCUC,0.04
17,UAACAGGGGACCACAGCAGAAGCGUUCACGUCGCAGCCCCUGUCCGAUUCUGGAGGAUCUGCGAGUUCUGCUGUAUAUCUC,0.08
18,UAACAGGGGACCACGGCAGAAGCGUUCACGUCGCAGCCCCUGUCAGACUCUGGUGAAUCUGCGAAUUCAGCUGUAUACCUC,0.2
19,UAACAGGGGACCACAGCAGAAGCGUUCUCGUCGCUGCCCCUGUCAGAUUCUGGUGAGUCUGCGAAUUCUGCUGUAUAUCUC,0.05
20,UAACAGGGGACCACAGCAGUAGCGUUCACGUCGCAGCCCCUGCCAGAUUCACGUGAAUCUGCGGAUUCUGCUGUAUAUCUC,0.05
21,UAACAGGGGAACACAGCAGAAGCGUUCACGUCGCAGCCCCAGUCAGAUUCUGGUGAAUCUGCGAAUUCAGCUGUAUAUCUC,0.15
22,UAACAGGGGACCACAGCAGAAGCGUUCGCGUCGCAGCCCCUGUCAGAUUCUGGUGAAUCAGCGAAUUCUGCUGUAUAUCUC,0.06
